From the antibiotic and cytotoxicity screens of Wong et al. (2023)
Some of the results follow.

Assays:
HSkMC = human skeletal muscle cells; experiment: cytotoxicity call (relative viability < 0.9); conditions: 10 µM
S. aureus RN4220 = experiment: growth inhibition call (relative growth <= 0.2); conditions: 50 µM

Compound | cytotoxicity call (HSkMC) | growth inhibition call (S. aureus RN4220)
CCCN(C)C[C@H]1OCCCC[C@H](C)Oc2ccc(NS(C)(=O)=O)cc2C(=O)N([C@H](C)CO)C[C@H]1C | inactive | inactive
COc1ccc(S(=O)(=O)N(C)C[C@@H]2Oc3ccc(NC(=O)Cc4ccccc4)cc3CC(=O)N([C@H](C)CO)C[C@H]2C)cc1 | inactive | inactive
C[C@H](CO)N1C[C@H](C)[C@@H](CN(C)S(=O)(=O)c2cccs2)Oc2ccc(NS(=O)(=O)c3ccc(F)cc3)cc2CC1=O | inactive | inactive
C[C@@H]1CN([C@@H](C)CO)S(=O)(=O)c2ccc(C#Cc3ccccc3)cc2O[C@H]1CN(C)S(C)(=O)=O | inactive | inactive
CNCc1ccccc1.Cl | inactive | inactive
COc1ccc(C#Cc2ccc3c(c2)O[C@H](CN(C)C(C)=O)[C@@H](C)CN([C@@H](C)CO)S3(=O)=O)cc1 | inactive | inactive
COc1ccc(O)cc1 | inactive | inactive
OC[C@H]1CC[C@@H]2O[C@H](CCc3ccc(C#Cc4ccccc4)cc3)[C@H](n3cc(-c4ccccc4)nn3)C[C@@H]2O1 | active | inactive
COc1ccc(S(=O)(=O)N(C)C[C@H]2OCCCC[C@@H](C)Oc3ccc(NC(=O)Nc4ccc(C(F)(F)F)cc4)cc3C(=O)N([C@H](C)CO)C[C@@H]2C)cc1 | inactive | inactive
COc1ccc(-c2c(O)c3c(OC)c4c(cc3oc2=O)OC(C)(C)C=C4)cc1 | inactive | inactive
C[C@H]1CN([C@@H](C)CO)C(=O)c2cc(NC(=O)Nc3ccc4c(c3)OCO4)ccc2O[C@@H]1CN(C)C(=O)Nc1cccc2ccccc12 | inactive | inactive
